Where a chain is given by its changes, count along the chain named. The list shows a part of the results.

The chains are these.
T1: RBFOX1 RRM (Homo sapiens, UniProt Q9NWB1 109-208)
T1 sequence: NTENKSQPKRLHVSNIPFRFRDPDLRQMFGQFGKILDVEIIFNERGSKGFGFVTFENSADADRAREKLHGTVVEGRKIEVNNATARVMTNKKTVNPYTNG

B1: UUAAAUU (DNA:RNA)
RNA: GGGAGACCGGAAUUCAGAUUGUCCUUAAAUUUUAAAUCCCGUCGUAGCCACCA
DNA 1: CAATCTGAATTCCGGTCTCCC
DNA 2: TGGTGGCTACGACGGGATT
B2: UACGAUU (DNA:RNA)
RNA: B1 RNA with U26A, A27C, A28G
DNA 1: CAATCTGAATTCCGGTCTCCC
DNA 2: TGGTGGCTACGACGGGATT
B3: CAUCCCA (DNA:RNA)
RNA: GGGAGACCGGAAUUCAGAUUGUCCCAUCCCAUUAAAUCCCGUCGUAGCCACCA
DNA 1: CAATCTGAATTCCGGTCTCCC
DNA 2: TGGTGGCTACGACGGGATT
B4: CGGAUUA (DNA:RNA)
RNA: B3 RNA with A26G, U27G, C28A, C29U, C30U
DNA 1: CAATCTGAATTCCGGTCTCCC
DNA 2: TGGTGGCTACGACGGGATT
B5: GCGAGCC (DNA:RNA)
RNA: B3 RNA with C25G, A26C, U27G, C28A, C29G, A31C
DNA 1: CAATCTGAATTCCGGTCTCCC
DNA 2: TGGTGGCTACGACGGGATT
B6: AAUACUG (DNA:RNA)
RNA: B3 RNA with C25A, C28A, C30U, A31G
DNA 1: CAATCTGAATTCCGGTCTCCC
DNA 2: TGGTGGCTACGACGGGATT
B7: UAUUAAA (DNA:RNA)
RNA: B3 RNA with C25U, C28U, C29A, C30A
DNA 1: CAATCTGAATTCCGGTCTCCC
DNA 2: TGGTGGCTACGACGGGATT
B8: GAGGUUG (DNA:RNA)
RNA: B3 RNA with C25G, U27G, C28G, C29U, C30U, A31G
DNA 1: CAATCTGAATTCCGGTCTCCC
DNA 2: TGGTGGCTACGACGGGATT
B9: CUCUGGG (DNA:RNA)
RNA: B3 RNA with A26U, U27C, C28U, C29G, C30G, A31G
DNA 1: CAATCTGAATTCCGGTCTCCC
DNA 2: TGGTGGCTACGACGGGATT
B10: ACUUACU (DNA:RNA)
RNA: B3 RNA with C25A, A26C, C28U, C29A, A31U
DNA 1: CAATCTGAATTCCGGTCTCCC
DNA 2: TGGTGGCTACGACGGGATT
B11: UAUACAG (DNA:RNA)
RNA: B3 RNA with C25U, C28A, C30A, A31G
DNA 1: CAATCTGAATTCCGGTCTCCC
DNA 2: TGGTGGCTACGACGGGATT
B12: GCCAGAG (DNA:RNA)
RNA: B1 RNA with U25G, U26C, A27C, A29G, U30A, U31G
DNA 1: CAATCTGAATTCCGGTCTCCC
DNA 2: TGGTGGCTACGACGGGATT
B13: GGAUCUU (DNA:RNA)
RNA: B1 RNA with U25G, U26G, A28U, A29C
DNA 1: CAATCTGAATTCCGGTCTCCC
DNA 2: TGGTGGCTACGACGGGATT
B14: AGGUUAU (DNA:RNA)
RNA: B1 RNA with U25A, U26G, A27G, A28U, A29U, U30A
DNA 1: CAATCTGAATTCCGGTCTCCC
DNA 2: TGGTGGCTACGACGGGATT
B15: AACCUCC (DNA:RNA)
RNA: B3 RNA with C25A, U27C, C29U, A31C
DNA 1: CAATCTGAATTCCGGTCTCCC
DNA 2: TGGTGGCTACGACGGGATT
B16: AAGUAAG (DNA:RNA)
RNA: B3 RNA with C25A, U27G, C28U, C29A, C30A, A31G
DNA 1: CAATCTGAATTCCGGTCTCCC
DNA 2: TGGTGGCTACGACGGGATT
B17: UUUACAG (DNA:RNA)
RNA: B1 RNA with A27U, A29C, U30A, U31G
DNA 1: CAATCTGAATTCCGGTCTCCC
DNA 2: TGGTGGCTACGACGGGATT
B18: CGAUUGG (DNA:RNA)
RNA: B3 RNA with A26G, U27A, C28U, C29U, C30G, A31G
DNA 1: CAATCTGAATTCCGGTCTCCC
DNA 2: TGGTGGCTACGACGGGATT
B19: AUAAUUU (DNA:RNA)
RNA: B1 RNA with U25A, A29U
DNA 1: CAATCTGAATTCCGGTCTCCC
DNA 2: TGGTGGCTACGACGGGATT
B20: AAAAAUU (DNA:RNA)
RNA: B1 RNA with U25A, U26A
DNA 1: CAATCTGAATTCCGGTCTCCC
DNA 2: TGGTGGCTACGACGGGATT
B21: UCCGGGC (DNA:RNA)
RNA: B1 RNA with U26C, A27C, A28G, A29G, U30G, U31C
DNA 1: CAATCTGAATTCCGGTCTCCC
DNA 2: TGGTGGCTACGACGGGATT
B22: UUAGAGU (DNA:RNA)
RNA: B1 RNA with A28G, U30G
DNA 1: CAATCTGAATTCCGGTCTCCC
DNA 2: TGGTGGCTACGACGGGATT
B23: UUGGUGA (DNA:RNA)
RNA: B1 RNA with A27G, A28G, A29U, U30G, U31A
DNA 1: CAATCTGAATTCCGGTCTCCC
DNA 2: TGGTGGCTACGACGGGATT
B24: CGUGUCC (DNA:RNA)
RNA: B3 RNA with A26G, C28G, C29U, A31C
DNA 1: CAATCTGAATTCCGGTCTCCC
DNA 2: TGGTGGCTACGACGGGATT
B25: AUAAAGG (DNA:RNA)
RNA: B1 RNA with U25A, U30G, U31G
DNA 1: CAATCTGAATTCCGGTCTCCC
DNA 2: TGGTGGCTACGACGGGATT
B26: GGUUUGC (DNA:RNA)
RNA: B3 RNA with C25G, A26G, C28U, C29U, C30G, A31C
DNA 1: CAATCTGAATTCCGGTCTCCC
DNA 2: TGGTGGCTACGACGGGATT
B27: CUGCGCU (DNA:RNA)
RNA: B3 RNA with A26U, U27G, C29G, A31U
DNA 1: CAATCTGAATTCCGGTCTCCC
DNA 2: TGGTGGCTACGACGGGATT
B28: UGGCGAU (DNA:RNA)
RNA: B1 RNA with U26G, A27G, A28C, A29G, U30A
DNA 1: CAATCTGAATTCCGGTCTCCC
DNA 2: TGGTGGCTACGACGGGATT
B29: GUUUGGG (DNA:RNA)
RNA: B3 RNA with C25G, A26U, C28U, C29G, C30G, A31G
DNA 1: CAATCTGAATTCCGGTCTCCC
DNA 2: TGGTGGCTACGACGGGATT
B30: AAGGACU (DNA:RNA)
RNA: B3 RNA with C25A, U27G, C28G, C29A, A31U
DNA 1: CAATCTGAATTCCGGTCTCCC
DNA 2: TGGTGGCTACGACGGGATT
B31: GUACAGU (DNA:RNA)
RNA: B1 RNA with U25G, A28C, U30G
DNA 1: CAATCTGAATTCCGGTCTCCC
DNA 2: TGGTGGCTACGACGGGATT

This test concerns the target T1, RBFOX1 RRM. The test is described as follows: EMSA; HiTS-Eq, 1 nM pool, 10 min; buffer printed only for the single-RNA assays: 10 mM Tris pH 7.5, 150 mM NaCl, 3.4 mM EDTA, 0.001% NP-40, 30 C. The following applies: tags: His6 N-terminal (pET28a); label: 5' 32P. Summed up:
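Relative association constants, normalised to the cognate motif, were derived by comparing read counts of each RNA species with those of the control reaction. The RNA sequenced was the free fraction, separated by 8% native PAGE after a 10 min equilibration in 50 µL of 1 nM 5′-radiolabelled RNA (7 randomized nucleotides) with increasing concentrations of purified wild-type or mutant RbFox RRM.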
(In general: Mobility shift assays separate free from complexed probe on a gel.)
B1: the binding signal is 0.00371 KA relative to UGCAUGU.
For B2, the binding signal was 0.00504 KA relative to UGCAUGU.
For the molecule B3, the binding signal is 0.000386 KA relative to UGCAUGU.
Turning to B4, the binding signal was 0.0153 KA relative to UGCAUGU.
Regarding B5, the binding signal is 0.0153 KA relative to UGCAUGU.
B6: the binding signal was 0.00562 KA relative to UGCAUGU.
As for B7, the binding signal is 0.00573 KA relative to UGCAUGU.
For the molecule B8, the binding signal is 0.0283 KA relative to UGCAUGU.
In the case of B9, the binding signal is 0.00302 KA relative to UGCAUGU.
As for B10, the binding signal was 0.00189 KA relative to UGCAUGU.
With B11, the binding signal is 0.00697 KA relative to UGCAUGU.
As to B12, the binding signal is 0.0163 KA relative to UGCAUGU.
Under B13 stands 0.0133 KA relative to UGCAUGU; under B14, 0.00944 KA relative to UGCAUGU.
In the case of B15 it was 0.00309 KA relative to UGCAUGU; in that of B16, 0.00894 KA relative to UGCAUGU.
Regarding B17, the binding signal is 0.00641 KA relative to UGCAUGU.
Under B18 stands 0.0173 KA relative to UGCAUGU; under B19, 0.00313 KA relative to UGCAUGU; under B20, 0.000504 KA relative to UGCAUGU.
Take B21: the binding signal was 0.00512 KA relative to UGCAUGU.
Under B22 stands 0.0129 KA relative to UGCAUGU; under B23, 0.0158 KA relative to UGCAUGU; under B24, 0.00858 KA relative to UGCAUGU.
As for B25, the binding signal is 0.00589 KA relative to UGCAUGU.
With B26, the binding signal was 0.0289 KA relative to UGCAUGU.
In the case of B27, the binding signal is 0.015 KA relative to UGCAUGU.
Turning to B28, the binding signal is 0.0166 KA relative to UGCAUGU.
Under B29 stands 0.0128 KA relative to UGCAUGU.
As to B30, the binding signal is 0.00367 KA relative to UGCAUGU.
As for B31, the binding signal is 0.0103 KA relative to UGCAUGU.

The record behind these values is PMC9911399, “Two distinct binding modes provide the RNA-binding protein RbFox with extraordinary sequence specificity”.
